According to PubChem BioAssay AID588855 (National Center for Advancing Translational Sciences (NCATS), 2011):
Screen size: about 410,000 compounds; about 5,000 (1.2%) were called active. Inconclusive results, whose numbers are uncertain, are shown with a selection of clear calls. The call rests on the fitted dose curve; in most records, active means well fitted inhibition curve with a large enough effect; inconclusive means small, poorly fitted or top-dose-only effect; inactive means no such curve, though single readings can be large or run the other way. A potency beside an inconclusive call is a rough fit, not a confirmed value.

Experiment: qHTS for Inhibitors of TGF-b; further: nearly all actives have a fitted effect of over 65% in size
Settings: HepG2 CAGA-GFP TGF-b/SMAD3 reporter, GFP fluorescence, 18 h, TGF-beta stimulated, 500 pg/mL final; series mostly up to 46.1 µM
Outline: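 GFP signal (ex488/em500-530) from TGF-beta-stimulated HEPG2 CAGA-GFP cells, 500 pg/mL final, 18 h at 37 degrees C in DMEM plus 1% FBS, normalized to unstimulated and DMSO-stimulated controls.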
Potency means the concentration at half of the fitted maximal effect; tags describe the fitted curve by direction and shape.

SMILES	Potency
Cc1ccc(CSCCNC(=O)CN(c2ccccc2)S(C)(=O)=O)cc1	inactive
Cc1c(CCOC(=O)C23CC4CC(CC(C4)C2)C3)sc[n+]1CC#N	inconclusive: 11.2 µM [inhibitor, partial curve, poor fit]
CCNc1nc(NC(C)C)nc(N(C#N)CCOc2ccc(Cl)cc2Cl)n1	inconclusive: 35.5 µM [inhibitor, single point]
COc1ccc(NS(=O)(=O)c2cccc(NC(=O)CCS(=O)(=O)c3ccccc3)c2)cc1	inconclusive: 12.6 µM [inhibitor, partial curve, poor fit]
COc1ccc(NC(=O)N2CCN(C(=O)Nc3ccc(OC)cc3)CC2)cc1	inconclusive: 35.5 µM [inhibitor, single point]
O=C(Cn1ncc2ccc(Cl)cc21)NCc1ccc(F)cc1	inactive
Cc1nc(C(F)(F)F)ccc1C(=O)N1CCC1(C)C(=O)NS(=O)(=O)c1ccc(F)cc1F (configuration not stated)	inconclusive: 2.82 µM [inhibitor, partial curve, poor fit]
CCCC[C@H](CC(=O)c1ccccc1)[C@@H](OC(C)=O)C(=O)Oc1c(C(C)C)cccc1C(C)C	inconclusive: 0.141 µM [inhibitor, full curve, poor fit]
CC1(C)CC2CC(C)(CN2c2ncnc3ccccc23)C1 (configuration not stated)	inconclusive: 10 µM [inhibitor, partial curve, poor fit]
Cc1ccc(CCNC(=O)Cn2nc(-c3ccc(C)cc3)ccc2=O)cc1	inconclusive: 25.1 µM [inhibitor, single point]
C#Cc1ccc([C@@H]2C=C(C(=O)NCc3nc4ccccc4[nH]3)O[C@H](OCC)[C@H]2CCCO)cc1	inactive
Cc1ccc(C(=O)N2c3ccccc3OCC2C)cc1 (configuration not stated)	inactive
O=C1CC(N2CCN(c3ccc(S(=O)(=O)N4CCCC4)cc3)CC2)C(=O)N1c1ccc(F)cc1 (configuration not stated)	inconclusive: 5.62 µM [inhibitor, single point]
COc1cccc(/C=N/NC(=O)c2cc(-c3cccn3C)n[nH]2)c1O	inactive
CC(NC(=O)CN1C(=O)NC(Cc2ccccc2)(Cc2ccccc2)C1=O)C12CC3CC(CC(C3)C1)C2 (configuration not stated)	inactive
COC(=O)C1=C(C)NC(C)=C([N+](=O)[O-])[C@H]1c1ccccc1C(F)(F)F	inconclusive: 35.5 µM [inhibitor, partial curve, poor fit]
CC(C)(C)C1CCc2c(sc(NC(=O)Cn3nnc(-c4ccccc4F)n3)c2C#N)C1 (configuration not stated)	inactive
COc1cc(/C=N\NC(=O)c2ccccc2F)ccc1Oc1ccc([N+](=O)[O-])cn1	inactive
Cc1cccc(NC(=O)CSc2ncnc3nc[nH]c23)c1C	inconclusive: 1.12 µM [inhibitor, full curve, poor fit]
O=Cc1cn(CC(=O)Nc2ccc(F)cc2)c2ccccc12	inconclusive: 12.6 µM [inhibitor, partial curve, poor fit]
CCOc1ccc(N(C(=O)Cn2nnc3ccccc32)C(C(=O)NCc2ccccc2)c2ccc(OC)cc2)cc1 (configuration not stated)	inconclusive: 0.282 µM [inhibitor, full curve]
CNC(=O)c1ccccc1NC(=O)c1cccc(S(=O)(=O)N2CCC(C)CC2)c1	inconclusive: 7.94 µM [inhibitor, partial curve, poor fit]
COc1ccc(-n2c(N)c(C(=O)NCc3ccco3)c3nc4ccccc4nc32)cc1OC	inconclusive: 20 µM [inhibitor, single point]

SMILES	Potency
COc1ccc(NC(=O)CSCC(=O)Nc2nnc(C3CC3)s2)cc1	inconclusive: 31.6 µM [inhibitor, single point]
COc1ccc(N2CCN(C(=O)c3cn(CC(C)C)c(=O)c4c3c3ccccc3n4C)CC2)cc1	inconclusive: 35.5 µM [inhibitor, single point]
CN(c1ccccc1)S(=O)(=O)c1ccc(Cl)c(C(=O)OCC(=O)c2c(N)n(C)c(=O)n(C)c2=O)c1	inconclusive: 7.94 µM [inhibitor, single point]
Clc1ccccc1OCCNc1nc(NCC2CC2)nc2ccsc12	inconclusive: 28.2 µM [inhibitor, single point]
O=C(CSc1nnc(-c2cccs2)n1Cc1ccccc1)N1CCc2ccccc2C1	inconclusive: 25.1 µM [inhibitor, partial curve, poor fit]
CC(Oc1ccc(F)cc1)C(=O)/C=C\N(C)C (configuration not stated)	inconclusive: 5.62 µM [inhibitor, single point]
CCOc1cccc(-c2c(C(=O)N/N=C/c3ccc(Br)cc3)nnn2-c2nonc2N)c1	inconclusive: 20 µM [inhibitor, single point]
O=S1(=O)CCOC[C@H](Cc2ccccc2)N1Cc1ccccc1Br	inconclusive: 5.01 µM [inhibitor, full curve, poor fit]
COC(=O)c1c(NC(=O)COC(=O)c2ccc(NC(=O)CC#N)cc2)sc2c1CCCCC2	inconclusive: 3.55 µM [inhibitor, single point]
COc1ccc(CNC(=O)C(=O)Nc2ccc(OC)cc2OC)cc1	inactive
N=c1n(CCN2CCCCC2)c2ccccc2n1CC(=O)c1ccc(Cl)c(Cl)c1	inconclusive: 15.8 µM [inhibitor, partial curve, poor fit]
Cc1ccccc1NC(=O)CNc1ccc(Cl)c(C(F)(F)F)c1	inconclusive: 2.82 µM [inhibitor, full curve]
CC(C)Oc1ccc(CC2CCC(=O)N(C)C2=O)cc1 (configuration not stated)	inactive
CCN(c1cccc(C)c1)S(=O)(=O)c1ccc2[nH]cc(C(=O)NCCCOC)c(=O)c2c1	inconclusive: 25.1 µM [inhibitor, partial curve, poor fit]
Cc1nc(Nc2ccc(Cl)cc2Cl)sc1C(=O)Nc1ccccc1	inconclusive: 35.5 µM [inhibitor, single point]
O=C(c1cc(=O)[nH]c2ccccc12)N1CCN(Cc2ccc3c(c2)OCO3)CC1	inactive
COc1cc2c3c(c1OC)C1(C=CC(=NNC(N)=O)C=C1)CC3N(C(C)=O)CC2 (configuration not stated)	inactive
COc1ccc(NC(=O)N2CCN(c3ccc([N+](=O)[O-])cc3)CC2)cc1OC	inactive
Cc1cc(C(=O)Nc2ccccc2N2CCOCC2)c2ccccc2n1	inconclusive: 7.94 µM [inhibitor, partial curve]
O=C(CNC(=O)c1ccccc1F)NCCN1C(=O)S/C(=C\c2ccccc2Cl)C1=O	inconclusive: 0.112 µM [inhibitor, full curve, poor fit]
N=C1/C(=C\c2ccc(-c3cc(Cl)cc(Cl)c3)o2)C(=O)N=C2SC=C(c3ccccc3)N12	inactive
CCOc1ccccc1N(CC)C(=O)c1cc2c(=O)[nH]c3ccc(C)cc3c2s1	inactive
COc1ccc(-n2nc3c(c2NC(=O)c2cc(Br)ccc2Cl)CS(=O)C3)cc1 (configuration not stated)	inconclusive: 11.2 µM [inhibitor, partial curve, poor fit]

SMILES	Potency
COc1ccc(-c2csc(CCn3nc(C)cc3C)n2)cc1OC	inactive
Cc1noc(C)c1NC(=O)Nc1ccc2c(c1)C(=O)N([C@H](C)CO)C[C@H](C)[C@@H](CN(C)C(=O)Nc1ccccc1)O2	inactive
CSc1nc(C)c(Cl)c(C)c1C#N	inactive
CCNC(=S)N1CCc2cc(OC)c(OC)cc2C1COc1ccc(F)cc1 (configuration not stated)	inactive
CCCCC(CC)CNC(=O)CN1C(=O)CSc2ccc(S(=O)(=O)N3CCOCC3)cc21 (configuration not stated)	inconclusive: 7.08 µM [inhibitor, partial curve]
CCc1nc2c(OCc3ccccc3C(=O)OC)cccn2c1N(C)C(=O)Nc1ccccc1OC	inactive
O=C(c1nc[nH]c1C(=O)N1CCN(c2ccccc2)CC1)N1CCN(c2ccccc2)CC1	inactive
CC(C)CN(C(=O)CCCOc1ccc(Cl)cc1Cl)c1c(N)n(Cc2ccccc2)c(=O)[nH]c1=O	inconclusive: 35.5 µM [inhibitor, single point]
O=C(COC(=O)c1cccc(S(=O)(=O)N2CCOCC2)c1)NCc1ccccc1	inactive
COc1cc(OC)cc(C(=O)/C=C2\Sc3ccccc3N2C)c1	inactive
COc1cc(CNCCc2ccccc2F)ccc1OCC(=O)N1CCCCC1	inactive
O=C(c1ccc([N+](=O)[O-])cc1)N1CCN(C(=O)c2cccnc2)CC1	inconclusive: 2 µM [inhibitor, partial curve, poor fit]
Cc1ccc(C)c(NS(=O)(=O)c2cc(C(=O)NCc3ccncc3)ccc2C)c1	inactive
COc1ccc(CCNC(=O)[C@@H](NC(=O)N2CCn3c2nc2ccccc23)C(C)C)cc1OC	inactive
O=C(Cc1ccccc1)Nc1ncnc2c1C(c1ccccc1)c1c(ccc3ccccc13)O2 (configuration not stated)	inconclusive: 25.1 µM [inhibitor, partial curve, poor fit]
CC1=C(C(=O)Nc2cc(-c3cccc(F)c3)[nH]n2)C2(CCCCC2)OC1=O	inconclusive: 12.6 µM [inhibitor, single point]
Cc1cccc(-c2noc(CCCC(=O)Nc3cccnc3)n2)c1	inconclusive: 8.91 µM [inhibitor, partial curve]
Cc1cc2nnc(SCC(=O)Nc3ccc(F)c(Cl)c3)n2c2ccccc12	inactive
CCOc1ccccc1N1CCN(C(=O)c2ccc3[nH]c(C)c(C)c3c2)CC1	inconclusive: 31.6 µM [inhibitor, single point]
O=C(N/C=C\c1ccccc1)NCc1ccc(Cl)cc1	inconclusive: 0.112 µM [inhibitor, full curve, poor fit]
O=C(NCc1cccc(OC(F)(F)F)c1)C1CCC(=O)N(Cc2cccc(F)c2)C1 (configuration not stated)	inactive
